Experimental data as given in the supplement of paper PMC8728848.
This is one part of the list.

Key:
Assay in all cases: glycan array binding signal (z-score within array); higher = stronger binding
Conditions in all cases: glycan notation: IUPAC condensed, linker removed
Glc(b1-4)Glc = molecular target: Glc(b1-4)Glc
Outline: (§1)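 The Consortium for Functional Glycomics database supplied 3228 glycan arrays, of which those lacking an available protein sequence were dropped. The binding signal, a within-array Z-score, was averaged across arrays of the same protein sequence and across linkers. Negative scores can be read as non-binding.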

Glc(b1-6)Glc = molecular target: Glc(b1-6)Glc
Outline: as §1

GlcA(b1-3)Gal = molecular target: GlcA(b1-3)Gal
Outline: as §1

GlcA(b1-3)GlcNAc = molecular target: GlcA(b1-3)GlcNAc
Outline: as §1

GlcA(b1-6)Gal = molecular target: GlcA(b1-6)Gal
Outline: as §1

[1] = molecular target: GlcA3S(b1-3)Gal(b1-4)GlcNAc(b1-2)Man
Outline: as §1

[2] = molecular target: GlcA3S(b1-3)Gal(b1-4)GlcNAc(b1-3)Gal(b1-4)Glc
Outline: as §1

[3] = molecular target: GlcNAc(a1-3)Gal(b1-4)GlcNAc
Outline: as §1

[4] = molecular target: GlcNAc(a1-4)Gal(b1-3)GlcNAc
Outline: as §1

[5] = molecular target: GlcNAc(a1-4)Gal(b1-4)GalNAc
Outline: as §1

[6] = molecular target: GlcNAc(a1-4)Gal(b1-4)GlcNAc
Outline: as §1

[7] = molecular target: GlcNAc(a1-4)Gal(b1-4)GlcNAc(b1-3)Gal(b1-4)Glc
Outline: as §1

[8] = molecular target: GlcNAc(a1-4)Gal(b1-4)GlcNAc(b1-3)Gal(b1-4)GlcNAc
Outline: as §1

[9] = molecular target: GlcNAc(a1-4)Gal(b1-4)GlcNAc(b1-3)Gal(b1-4)GlcNAc(b1-3)Gal(b1-4)GlcNAc
Outline: as §1

[10] = molecular target: GlcNAc(a1-4)Gal(b1-4)GlcNAc(b1-3)Gal(b1-4)[Fuc(a1-3)]GlcNAc(b1-3)Gal(b1-4)[Fuc(a1-3)]GlcNAc
Outline: as §1

[11] = molecular target: GlcNAc(a1-6)Gal(b1-4)GlcNAc
Outline: as §1

[12] = molecular target: GlcNAc(b1-2)Gal(b1-3)GalNAc
Outline: as §1

[13] = molecular target: GlcNAc(b1-2)Man(a1-3)[GlcNAc(b1-2)Man(a1-6)]Man(b1-4)GlcNAc(b1-4)GlcNAc
Outline: as §1

[14] = molecular target: GlcNAc(b1-2)Man(a1-3)[GlcNAc(b1-2)Man(a1-6)]Man(b1-4)GlcNAc(b1-4)[Fuc(a1-6)]GlcNAc
Outline: as §1

[15] = molecular target: GlcNAc(b1-2)Man(a1-3)[GlcNAc(b1-4)][GlcNAc(b1-2)Man(a1-6)]Man(b1-4)GlcNAc(b1-4)GlcNAc
Outline: as §1

[16] = molecular target: GlcNAc(b1-2)Man(a1-3)[GlcNAc(b1-4)][GlcNAc(b1-2)Man(a1-6)]Man(b1-4)GlcNAc(b1-4)[Fuc(a1-6)]GlcNAc
Outline: as §1

[17] = molecular target: GlcNAc(b1-2)[GlcNAc(b1-4)]Man(a1-3)[GlcNAc(b1-2)Man(a1-6)]Man(b1-4)GlcNAc(b1-4)GlcNAc
Outline: as §1

[18] = molecular target: GlcNAc(b1-2)[GlcNAc(b1-4)]Man(a1-3)[GlcNAc(b1-4)][GlcNAc(b1-2)Man(a1-6)]Man(b1-4)GlcNAc(b1-4)GlcNAc
Outline: as §1

[19] = molecular target: GlcNAc(b1-2)[GlcNAc(b1-4)]Man(a1-3)[GlcNAc(b1-4)][GlcNAc(b1-2)[GlcNAc(b1-6)]Man(a1-6)]Man(b1-4)GlcNAc(b1-4)GlcNAc
Outline: as §1

[20] = molecular target: GlcNAc(b1-2)[GlcNAc(b1-4)]Man(a1-3)[GlcNAc(b1-4)][GlcNAc(b1-2)[GlcNAc(b1-6)]Man(a1-6)]Man(b1-4)GlcNAc(b1-4)[Fuc(a1-6)]GlcNAc
Outline: as §1

[21] = molecular target: GlcNAc(b1-2)[GlcNAc(b1-6)]Man(a1-6)[GlcNAc(b1-2)Man(a1-3)]Man(b1-4)GlcNAc(b1-4)GlcNAc
Outline: as §1

[22] = molecular target: GlcNAc(b1-2)[GlcNAc(b1-6)]Man(a1-6)[GlcNAc(b1-2)Man(a1-3)]Man(b1-4)GlcNAc(b1-4)[Fuc(a1-6)]GlcNAc
Outline: as §1

[23] = molecular target: GlcNAc(b1-2)[GlcNAc(b1-6)]Man(a1-6)[GlcNAc(b1-4)][GlcNAc(b1-2)Man(a1-3)]Man(b1-4)GlcNAc(b1-4)GlcNAc
Outline: as §1

GlcNAc(b1-3)Fuc = molecular target: GlcNAc(b1-3)Fuc
Outline: as §1

GlcNAc(b1-3)Gal = molecular target: GlcNAc(b1-3)Gal
Outline: as §1

[24] = molecular target: GlcNAc(b1-3)Gal(b1-3)GalNAc
Outline: as §1

GlcNAc(b1-3)Gal(b1-4)Glc = molecular target: GlcNAc(b1-3)Gal(b1-4)Glc
Outline: as §1

[25] = molecular target: GlcNAc(b1-3)Gal(b1-4)GlcNAc
Outline: as §1

[26] = molecular target: GlcNAc(b1-3)Gal(b1-4)GlcNAc(b1-2)Man(a1-3)[GlcNAc(b1-3)Gal(b1-4)GlcNAc(b1-2)Man(a1-6)]Man(b1-4)GlcNAc(b1-4)GlcNAc
Outline: as §1

[27] = molecular target: GlcNAc(b1-3)Gal(b1-4)GlcNAc(b1-2)Man(a1-3)[GlcNAc(b1-3)Gal(b1-4)GlcNAc(b1-2)Man(a1-6)]Man(b1-4)GlcNAc(b1-4)[Fuc(a1-6)]GlcNAc
Outline: as §1

[28] = molecular target: GlcNAc(b1-3)Gal(b1-4)GlcNAc(b1-2)[GlcNAc(b1-3)Gal(b1-4)GlcNAc(b1-6)]Man(a1-6)[GlcNAc(b1-3)Gal(b1-4)GlcNAc(b1-2)Man(a1-3)]Man(b1-4)GlcNAc(b1-4)GlcNAc
Outline: as §1

[29] = molecular target: GlcNAc(b1-3)Gal(b1-4)GlcNAc(b1-3)Gal(b1-4)GlcNAc
Outline: as §1

[30] = molecular target: GlcNAc(b1-3)Gal(b1-4)GlcNAc(b1-3)Gal(b1-4)GlcNAc(b1-2)Man(a1-3)[GlcNAc(b1-3)Gal(b1-4)GlcNAc(b1-3)Gal(b1-4)GlcNAc(b1-2)Man(a1-6)]Man(b1-4)GlcNAc(b1-4)GlcNAc
Outline: as §1

[31] = molecular target: GlcNAc(b1-3)Gal(b1-4)GlcNAc(b1-3)Gal(b1-4)GlcNAc(b1-2)Man(a1-3)[GlcNAc(b1-3)Gal(b1-4)GlcNAc(b1-3)Gal(b1-4)GlcNAc(b1-2)Man(a1-6)]Man(b1-4)GlcNAc(b1-4)[Fuc(a1-6)]GlcNAc
Outline: as §1

[32] = molecular target: GlcNAc(b1-3)Gal(b1-4)GlcNAc(b1-3)Gal(b1-4)GlcNAc(b1-2)[GlcNAc(b1-3)Gal(b1-4)GlcNAc(b1-3)Gal(b1-4)GlcNAc(b1-6)]Man(a1-6)[GlcNAc(b1-3)Gal(b1-4)GlcNAc(b1-3)Gal(b1-4)GlcNAc(b1-2)Man(a1-3)]Man(b1-4)GlcNAc(b1-4)[Fuc(a1-6)]GlcNAc
Outline: as §1

[33] = molecular target: GlcNAc(b1-3)Gal(b1-4)GlcNAc(b1-3)Gal(b1-4)GlcNAc(b1-3)Gal(b1-4)GlcNAc(b1-2)Man(a1-3)[GlcNAc(b1-3)Gal(b1-4)GlcNAc(b1-3)Gal(b1-4)GlcNAc(b1-3)Gal(b1-4)GlcNAc(b1-2)Man(a1-6)]Man(b1-4)GlcNAc(b1-4)GlcNAc
Outline: as §1

[34] = molecular target: GlcNAc(b1-3)Gal(b1-4)GlcNAc(b1-3)Gal(b1-4)GlcNAc(b1-3)Gal(b1-4)GlcNAc(b1-2)Man(a1-3)[GlcNAc(b1-3)Gal(b1-4)GlcNAc(b1-3)Gal(b1-4)GlcNAc(b1-3)Gal(b1-4)GlcNAc(b1-2)Man(a1-6)]Man(b1-4)GlcNAc(b1-4)[Fuc(a1-6)]GlcNAc
Outline: as §1

[35] = molecular target: GlcNAc(b1-3)Gal(b1-4)GlcNAc(b1-3)Gal(b1-4)GlcNAc(b1-3)Gal(b1-4)GlcNAc(b1-2)[GlcNAc(b1-3)Gal(b1-4)GlcNAc(b1-3)Gal(b1-4)GlcNAc(b1-3)Gal(b1-4)GlcNAc(b1-6)]Man(a1-6)[GlcNAc(b1-3)Gal(b1-4)GlcNAc(b1-3)Gal(b1-4)GlcNAc(b1-3)Gal(b1-4)GlcNAc(b1-2)Man(a1-3)]Man(b1-4)GlcNAc(b1-4)[Fuc(a1-6)]GlcNAc
Outline: as §1

[36] = molecular target: GlcNAc(b1-3)Gal(b1-4)GlcNAc(b1-3)Gal(b1-4)GlcNAc(b1-3)Gal(b1-4)GlcNAc(b1-3)Gal(b1-4)GlcNAc(b1-2)Man(a1-3)[GlcNAc(b1-3)Gal(b1-4)GlcNAc(b1-3)Gal(b1-4)GlcNAc(b1-3)Gal(b1-4)GlcNAc(b1-3)Gal(b1-4)GlcNAc(b1-2)Man(a1-6)]Man(b1-4)GlcNAc(b1-4)GlcNAc
Outline: as §1

[37] = molecular target: GlcNAc(b1-3)Gal(b1-4)GlcNAc(b1-3)Gal(b1-4)GlcNAc(b1-3)Gal(b1-4)GlcNAc(b1-3)Gal(b1-4)GlcNAc(b1-2)Man(a1-3)[GlcNAc(b1-3)Gal(b1-4)GlcNAc(b1-3)Gal(b1-4)GlcNAc(b1-3)Gal(b1-4)GlcNAc(b1-3)Gal(b1-4)GlcNAc(b1-2)Man(a1-6)]Man(b1-4)GlcNAc(b1-4)[Fuc(a1-6)]GlcNAc
Outline: as §1

B1: LICBM33A (Lactococcus lactis), Q9CE94 (protein)
chain: MKKLLTGLLVAAGLLSVSLLIKTDTVSAHGYVQSPPARGYQGQLDSQSLGWTAAFNIYGNVISNPQSLEAPKGFPECGPADGRIASANGGLGQIGDFVLDNQTSSRWKKTSISTGSNIFTWKYTAPHKTTKWHYYMTKTGWDQNAPLKHSELELIGTINHDGSPATNNLSHTINIPTDRSGYHIVLAVWDVADTSNAFYNVIDINVNNKNASSQVFGPFL
glycan array binding signal (z-score) (Glc(b1-4)Glc): -0.321
glycan array binding signal (z-score) (Glc(b1-6)Glc): 0.571
glycan array binding signal (z-score) (GlcA(b1-3)Gal): -0.362
glycan array binding signal (z-score) (GlcA(b1-3)GlcNAc): -0.435
glycan array binding signal (z-score) (GlcA(b1-6)Gal): -1.11
glycan array binding signal (z-score) [1]: -0.733
glycan array binding signal (z-score) [2]: -0.244
glycan array binding signal (z-score) [3]: -0.357
glycan array binding signal (z-score) [4]: -0.555
glycan array binding signal (z-score) [5]: -0.536
glycan array binding signal (z-score) [6]: -0.621
glycan array binding signal (z-score) [7]: -0.708
glycan array binding signal (z-score) [8]: -0.4
glycan array binding signal (z-score) [9]: -0.457
glycan array binding signal (z-score) [10]: -0.819
glycan array binding signal (z-score) [11]: -0.723
glycan array binding signal (z-score) [12]: -0.103
glycan array binding signal (z-score) [13]: 0.585
glycan array binding signal (z-score) [14]: 0.279
glycan array binding signal (z-score) [15]: 0.06
glycan array binding signal (z-score) [16]: -0.254
glycan array binding signal (z-score) [17]: -1.28
glycan array binding signal (z-score) [18]: -0.18
glycan array binding signal (z-score) [19]: -0.369
glycan array binding signal (z-score) [20]: -0.549
glycan array binding signal (z-score) [21]: 0.904
glycan array binding signal (z-score) [22]: 2.67
glycan array binding signal (z-score) [23]: -0.104
glycan array binding signal (z-score) (GlcNAc(b1-3)Fuc): -0.015
glycan array binding signal (z-score) (GlcNAc(b1-3)Gal): -1.21
glycan array binding signal (z-score) [24]: -0.258
glycan array binding signal (z-score) (GlcNAc(b1-3)Gal(b1-4)Glc): -0.699
glycan array binding signal (z-score) [25]: -0.369
glycan array binding signal (z-score) [26]: -0.125
glycan array binding signal (z-score) [27]: -0.978
glycan array binding signal (z-score) [28]: -1.17
glycan array binding signal (z-score) [29]: -0.448
glycan array binding signal (z-score) [30]: 0.07
glycan array binding signal (z-score) [31]: -0.307
glycan array binding signal (z-score) [32]: -0.509
glycan array binding signal (z-score) [33]: -0.201
glycan array binding signal (z-score) [34]: 0.156
glycan array binding signal (z-score) [35]: -0.443
glycan array binding signal (z-score) [36]: 4.98
glycan array binding signal (z-score) [37]: 1.45
